Article PMC11796369, “Genetic and biochemical characterization of a radical SAM enzyme required for post-translational glutamine methylation of methyl-coenzyme M reductase” (mBio, 2025)

Target: T1, Gln420-methylated MCR from M. acetivorans (MaMCR) (Methanosarcina acetivorans, UniProt Q8THG7+Q8THH0+Q8THH1)
T1 construct: gene mcrA
Test: X-ray crystal structure, […] Å
Conditions: co-purified, not added, Ni(II) form, sulfonate oxygen coordinates Ni of F430

C[C@@H](OP(=O)(O)O)[C@H](NC(=O)CCCCCCSSCCS(=O)(=O)O)C(=O)O [CoM-S-S-CoB, CoM-S-S-CoB heterodisulfide]
X-ray crystal structure, 2.0 Å: the active site contains the CoM-S-S-CoB heterodisulfide positioned near the Ni(II)-F430
